Article PMC9691347, “C9orf72 regulates the unfolded protein response and stress granule formation by interacting with eIF2α” (Theranostics, 2022)
No constants are given. Whether binding was seen depends on the method and setting. In cells and extracts the contact can be indirect. Some binding calls cover weakened binding; strength is not graded here. For some assays here: Where a sequence is shown, tags or fusion partners need not be part of it. Each block holds one molecule with its values, some of them ahead of it.

Chains of the proteins cited; added tags and fusions are not shown.
UniProt P68101: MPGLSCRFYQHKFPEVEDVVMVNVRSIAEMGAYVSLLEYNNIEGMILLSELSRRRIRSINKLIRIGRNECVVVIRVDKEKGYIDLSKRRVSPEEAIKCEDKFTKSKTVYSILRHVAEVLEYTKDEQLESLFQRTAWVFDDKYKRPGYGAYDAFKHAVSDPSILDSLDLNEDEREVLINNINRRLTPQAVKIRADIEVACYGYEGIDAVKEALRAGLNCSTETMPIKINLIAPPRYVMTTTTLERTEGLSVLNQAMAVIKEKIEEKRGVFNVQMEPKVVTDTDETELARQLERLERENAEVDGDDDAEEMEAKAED
UniProt P05198: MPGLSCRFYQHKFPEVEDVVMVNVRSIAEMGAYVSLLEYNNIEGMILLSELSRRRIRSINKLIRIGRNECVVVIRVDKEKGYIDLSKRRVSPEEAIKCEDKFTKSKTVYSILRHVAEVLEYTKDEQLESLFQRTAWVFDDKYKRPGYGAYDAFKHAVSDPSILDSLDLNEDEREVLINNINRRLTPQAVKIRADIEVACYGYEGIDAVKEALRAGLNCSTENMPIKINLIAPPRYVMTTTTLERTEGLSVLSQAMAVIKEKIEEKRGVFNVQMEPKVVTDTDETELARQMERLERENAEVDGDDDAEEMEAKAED

How the values were obtained:
[1] = target: T1, Flag-tagged C9orf72 short isoform (Flag-C9S) (human) (UniProt Q96LT7); test: co-IP; lysates of HeLa cells overexpressing Flag, Flag-C9S, Flag-C9T or Flag-C9L, under basal conditions or SA stress (0.5 h, 0.2 mM SA) with or without 1 h recovery; Flag antibody on Protein A/G magnetic beads; blots for Flag, eIF2α, p62
T1 sequence: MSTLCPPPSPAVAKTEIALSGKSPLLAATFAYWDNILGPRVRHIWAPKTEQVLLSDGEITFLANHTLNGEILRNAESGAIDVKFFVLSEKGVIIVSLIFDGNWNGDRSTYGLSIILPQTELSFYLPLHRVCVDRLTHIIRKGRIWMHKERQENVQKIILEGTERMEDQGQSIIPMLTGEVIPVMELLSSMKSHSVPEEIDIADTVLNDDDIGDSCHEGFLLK

[2] = target: T2, GST-tagged C9orf72 short protein isoform (GST-C9S) (human) (UniProt Q96LT7); test: pull-down; 1 µg GST, GST-C9S or GST-C9L on glutathione magnetic beads, incubated with 1 mL WT HCT116 cell lysate up to 4 h at 4°C; washes with 400 mM NaCl, 0.6% Triton X-100; blots for GST and eIF2α; only the target purified
T2 sequence: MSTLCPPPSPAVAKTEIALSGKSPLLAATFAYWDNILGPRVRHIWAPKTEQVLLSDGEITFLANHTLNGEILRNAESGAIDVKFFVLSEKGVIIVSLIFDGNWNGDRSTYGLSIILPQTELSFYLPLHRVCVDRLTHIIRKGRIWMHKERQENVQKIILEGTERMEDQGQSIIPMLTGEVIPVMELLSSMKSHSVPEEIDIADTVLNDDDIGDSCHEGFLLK

[3] = target: T3, GST-tagged C9orf72 long protein isoform (GST-C9L) (human) (UniProt Q96LT7); test: as above
T3 sequence: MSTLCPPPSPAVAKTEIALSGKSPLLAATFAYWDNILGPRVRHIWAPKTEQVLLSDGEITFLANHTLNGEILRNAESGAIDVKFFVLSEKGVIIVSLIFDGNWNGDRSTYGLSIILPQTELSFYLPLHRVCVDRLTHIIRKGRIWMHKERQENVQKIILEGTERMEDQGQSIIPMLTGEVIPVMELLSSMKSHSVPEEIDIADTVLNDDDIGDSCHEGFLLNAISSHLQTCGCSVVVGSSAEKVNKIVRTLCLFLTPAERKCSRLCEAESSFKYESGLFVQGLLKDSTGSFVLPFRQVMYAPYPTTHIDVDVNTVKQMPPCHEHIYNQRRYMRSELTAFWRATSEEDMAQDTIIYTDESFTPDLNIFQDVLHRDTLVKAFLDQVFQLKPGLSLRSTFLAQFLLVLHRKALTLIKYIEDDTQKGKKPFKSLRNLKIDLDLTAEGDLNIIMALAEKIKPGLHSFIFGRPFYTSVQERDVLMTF

[4] = target: T4, Flag-tagged C9orf72 long isoform (Flag-C9L) (human) (UniProt Q96LT7); test: co-IP; lysates of HeLa cells overexpressing Flag, Flag-C9S, Flag-C9T or Flag-C9L, under basal conditions or SA stress (0.5 h, 0.2 mM SA) with or without 1 h recovery; Flag antibody on Protein A/G magnetic beads; blots for Flag, eIF2α, p62
T4 sequence: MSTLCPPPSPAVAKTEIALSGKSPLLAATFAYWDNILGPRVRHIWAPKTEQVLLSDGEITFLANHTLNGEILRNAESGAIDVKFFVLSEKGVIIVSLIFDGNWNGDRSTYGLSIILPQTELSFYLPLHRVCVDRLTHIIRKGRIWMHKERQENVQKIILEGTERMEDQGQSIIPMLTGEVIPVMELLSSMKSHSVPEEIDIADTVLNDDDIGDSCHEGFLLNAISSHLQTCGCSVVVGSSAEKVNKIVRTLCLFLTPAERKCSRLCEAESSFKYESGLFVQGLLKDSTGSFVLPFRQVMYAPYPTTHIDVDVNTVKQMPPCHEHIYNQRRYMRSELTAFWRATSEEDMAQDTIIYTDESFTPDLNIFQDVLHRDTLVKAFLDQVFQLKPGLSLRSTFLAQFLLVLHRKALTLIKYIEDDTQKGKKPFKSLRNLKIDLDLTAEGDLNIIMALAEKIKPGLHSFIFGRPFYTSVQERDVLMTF

[5] = target: T5, Flag-C9orf72 (long isoform) (human) (UniProt Q96LT7); test: co-IP; lysates of HEK-293T cells overexpressing Flag-tag or Flag-C9orf72 (long isoform); Flag antibody on Protein A/G magnetic beads; blots for Flag and eIF2α
T5 sequence: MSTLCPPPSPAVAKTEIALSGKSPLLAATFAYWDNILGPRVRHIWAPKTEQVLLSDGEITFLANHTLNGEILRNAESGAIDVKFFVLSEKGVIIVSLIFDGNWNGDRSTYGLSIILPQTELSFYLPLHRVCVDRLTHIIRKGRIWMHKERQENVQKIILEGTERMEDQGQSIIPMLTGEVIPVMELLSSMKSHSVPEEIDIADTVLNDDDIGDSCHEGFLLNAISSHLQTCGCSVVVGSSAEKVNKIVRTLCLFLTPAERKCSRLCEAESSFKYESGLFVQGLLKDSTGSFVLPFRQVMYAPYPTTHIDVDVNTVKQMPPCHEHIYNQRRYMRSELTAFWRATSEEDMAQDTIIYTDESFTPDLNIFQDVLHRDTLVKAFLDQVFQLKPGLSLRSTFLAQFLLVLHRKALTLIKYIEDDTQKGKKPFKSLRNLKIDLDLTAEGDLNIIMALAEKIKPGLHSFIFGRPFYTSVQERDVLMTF

[6] = target: T5, Flag-C9orf72 (long isoform) (human); test: co-IP; immunoprecipitation of Flag-C9orf72; eIF2α and eIF2B5 looked for in the precipitate (Figure S6; cell line not shown)
[7] = target: eIF2α, endogenous in rat cerebral cortex and spleen (rat (endogenous in Sprague-Dawley rat tissue)) (UniProt P68101); test: co-IP; endogenous eIF2α precipitated from cerebral cortex or spleen lysates of WT or C9orf72-null (KO-7, KO-16) rats with an eIF2α antibody on Protein A/G magnetic beads; blots for C9orf72 or eIF2B5
[8] = target: eIF2α, endogenous in HCT116 (human (endogenous in HCT116)) (UniProt P05198); test: co-IP; endogenous eIF2α or p-eIF2α (S51) precipitated from WT or C9orf72-/- (H1-3, 63-1) HCT116 lysates with an eIF2α or p-eIF2α (S51) antibody on Protein A/G magnetic beads; blot for C9orf72
[9] = target: p-eIF2α (S51), endogenous in HCT116 (human (endogenous in HCT116)) (UniProt P05198); test: as above

binding [1]: no binding
Molecule: p62, endogenous in HeLa (from UniProt Q13501 1-440)

binding [2]: binds
binding [3]: binds
Molecule: eIF2α, endogenous in HCT116 (from UniProt P05198 1-315)

binding [1]: binds
binding [4]: binds
Molecule: eIF2α, endogenous in HeLa (from UniProt P05198 1-315)

binding [5]: binds
binding [6]: binds
Molecule: eukaryotic initiation factor 2 subunit alpha (eIF2α), endogenous in HEK-293T (from UniProt P05198 1-315)

binding [7]: binds
B1: eIF2B5, endogenous in rat cerebral cortex and spleen (protein, UniProt Q64350 1-716)
chain: MAATAAVPSAVGGRANKRGGGSGGGGTQGAEEEPPPPLQAVLVADSFDRRFFPISKDQPRVLLPLANVALIDYTLEFLTATGVQETFVFCCWKAAQIKEHLQKSKWCHPTSLNVVRIITSDLYRSLGDVLRDVDAKALVRSDFLLIYGDVVSNINISKALEEHRLRRKLEKNVSVMTMVFKESSPSHPTRCHEDNVVLAVDSTTNRILHFQKTQGLRHFSFPLGLFQGSLDGVEIRYDLLDCHISICSPQVAQLFTDNFDYQTRDDFVRGLLVNEEILGNQIHLHVTSREYGARVSNLHMYSAVCADVIRRWVYPLTPEVNFTDSSTQSYTHSRHNIYRGPEVSLGHGSVLEENVLLGAGTVVGSNCSITNSVIGPNCHIGDNVVLDQAYLWQGVRVAAGAQIHQSLLCDRAEVKERVILKPHCVLTSQVVVGPDIILPEGSVISLHPPDAEEDEDDGQFSDDSGADQEKEKVKLKGYNPAEVGPEGQGYLWKAEDVDEKEDEELRQSLWGLMINMEEESETESERSVDPEELDSRAGSPQLDDIRVFQNEVLGTLQRGREENISCDNLVLEINSLKYAYNISLKEVMQVLSHVVLEFPLQQVDGVLDPNRYCALLLPLLKAWSPVFRNYIKRAADHLEALAAIEDFFLEHETLVPSLAKVLMAFYQLEILAEETILSWFSQRDITDKGQQLRKNQQLQRFIQWLREAEEESSDDD

binding [8]: binds
binding [9]: binds
B2: C9orf72, endogenous in HCT116 (protein, UniProt Q96LT7 1-481)
chain: MSTLCPPPSPAVAKTEIALSGKSPLLAATFAYWDNILGPRVRHIWAPKTEQVLLSDGEITFLANHTLNGEILRNAESGAIDVKFFVLSEKGVIIVSLIFDGNWNGDRSTYGLSIILPQTELSFYLPLHRVCVDRLTHIIRKGRIWMHKERQENVQKIILEGTERMEDQGQSIIPMLTGEVIPVMELLSSMKSHSVPEEIDIADTVLNDDDIGDSCHEGFLLNAISSHLQTCGCSVVVGSSAEKVNKIVRTLCLFLTPAERKCSRLCEAESSFKYESGLFVQGLLKDSTGSFVLPFRQVMYAPYPTTHIDVDVNTVKQMPPCHEHIYNQRRYMRSELTAFWRATSEEDMAQDTIIYTDESFTPDLNIFQDVLHRDTLVKAFLDQVFQLKPGLSLRSTFLAQFLLVLHRKALTLIKYIEDDTQKGKKPFKSLRNLKIDLDLTAEGDLNIIMALAEKIKPGLHSFIFGRPFYTSVQERDVLMTF

binding [7]: binds
B3: C9orf72 (rat C9orf72 ortholog, RGD1359108), endogenous in rat cerebral cortex and spleen (protein, UniProt Q66HC3 1-481)
chain: MSTICPPPSPAVAKTEIALSGESPLLAATFAYWDNILGPRVRHIWAPKTDQVLLSDGEITFLANHTLNGEILRNAESGAIDVKFFVLSEKGVIIVSLIFDGNWNGDRSTYGLSIILPQTELSFYLPLHRVCVDRLTHIIRKGRIWMHKERQENVQKIVLEGTERMEDQGQSIIPMLTGEVIPVMELLASMRSHSVPEDLDIADTVLNDDDIGDSCHEGFLLNAISSHLQTCGCSVVVGSSAEKVNKIVRTLCLFLTPAERKCSRLCEAESSFKYESGLFVQGLLKDATGSFVLPFRQVMYAPYPTTHIDVDVNTVKQMPPCHEHIYNQRRYMRSELTAFWRATSEEDMAQDTIIYTDESFTPDLNIFQDVLHRDTLVKAFLDQVFHLKPGLSLRSTFLAQFLLILHRKALTLIKYIEDDTQKGKKPFKSLRNLKIDLDLTAEGDLNIIMALAEKIKPGLHSFIFGRPFYTSVQERDVLMTF
